The full ranking holds about 81,000 sequences; the median of “one-hybrid fitness for binding parS DNA” is about -0.17, and the highest 2% start at about 0.51. Some of the results follow.
B1: Caulobacter ParB omega fusion; a variant is named by its letters at X, in order, B8GW30 (parent)
chain: MESVVVGEPGMSEGRRGLGRGLSALLGEVDAAPAQAPGEQLGGSREAPIEILQRNPDQPRRTFREEDLEDLSNSIREKGVLQPILVRPSPDTAGEYQIVAGERAWRAAQRAGLKTVPIMVRELDDLAVLEIGIIENVQRADLNVLEEALSYKVLMEKFERTQENIAQTIGKSXSHVANXMRLLXLPDEVQSYLVSGELTAXHARAIAAAADPVALAKQIIEGGLSVRETEALARKAPNLSAGKSKGGRPPRVKDTDTQALESDLSSVLGLDVSIDHRGSTGTLTITYATLEQLDDLCNRLTRGI

Variants of: B1
Assay: one-hybrid fitness for binding parS DNA (scaled: cognate 1, non-cognate 0); higher = stronger binding
Details: with parS DNA site
Summary of the method: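 Fitness is the rescaled log change in variant-to-wild-type read ratio, measured by Illumina sequencing of plasmids before and after bacterial one-hybrid selection. The scale puts cognate at 1 and non-cognate at 0. Selection of Caulobacter ParB libraries, four specificity codons randomised, took place in E. coli USO with a HIS3 reporter, site 19 bp from the promoter, over 48 hours at 37°C on M9-minus-histidine with 0.1 mM IPTG and 5 mM 3-AT.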

one-hybrid fitness for binding parS DNA, 0.483:
RVEA

one-hybrid fitness for binding parS DNA, 0.97:
RILC

one-hybrid fitness for binding parS DNA, 0.68:
RRYS

one-hybrid fitness for binding parS DNA, 0.967:
RHLG

one-hybrid fitness for binding parS DNA, 0.949:
RVTT

one-hybrid fitness for binding parS DNA, ≤ 0.2:
FPQG
DQTV
FCYP
SRSD
MLNS
ANLC
VIDT
NAAS
HKWG
RIER
GCAS
GATM
HIYP
AEST
GPPE
FWKN
TVVT
QSDW
GLSV
NFRG
PVPN
LTHF
SGSY
GVYS
DVQR
SWMA
LTNN
AKPQ
GANA
MSAS
LNRV
CSAH
LRIP
RHED
YYNL
QQRR
TTEV
SAED
RDYY
CCYA
QDLT
MSIL
THLD
CVCF
TQNV
PAEP
YLRS
GNYS
HGIC
RRLV
IRDI
NQFR
RHRF
RKDR
LSNK
NHIT
HQLG
GTWI
GKTA
FSWG
IVIS
RRAF
WCYG
PHHR
PQRG
CKKK
RDHG
FVWS
REKN
NGHC
FQNA
KETN
YISS
HSDL
PKMR
GAQR
DLVK
TQTV
RQAL
QESM
PIER
MRCG
AKHQ
PDFL
PYRM
GSGM
GFIT
YLIY
FKLV
PTWE
WGGR
VVNF
